Experiment [1] is described as follows: qHTS assay to identify small molecule agonists of the constitutive androstane receptor (CAR) signaling pathway - cell viability counter screen (AID 1224836). Also: nearly all actives have a fitted effect of over 45% in size. The method, boiled down:
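Viability read-out: CellTiter-Fluor fluorescence after 23 h compound exposure at 37 C/5% CO2 in double-stable HepG2-CYP2B6-hCAR cells, with PK11195 present at 0.75 uM final; compounds tested in 15-point titration.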

The nature of experiment [2]: qHTS assay to identify small molecule antagonists of the constitutive androstane receptor (CAR) signaling pathway - cell viability counter screen (AID 1224837). Also: nearly all actives have a fitted effect of over 45% in size. The method, boiled down: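 CITCO at 50 nM final was added alongside compounds (15 concentrations) to double-stable hCAR/CYP2B6-2.2kb HepG2 cells. Following 23 hr at 37 C, cell viability was quantified by CellTiter-Fluor fluorescence intensity.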
On the technique in general: Quantitative high-throughput screening tests each substance at several concentrations.

Experiment [3] can be described thus: qHTS assay to identify small molecule antagonists of the progesterone receptor (PR) signaling pathway - cell viability counter screen (AID 1346798). Also: nearly all actives have a fitted effect of over 50% in size. The method, boiled down: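 Luminescence readout (CellTiter-Glo, 30 min, RT) of viability in PR-UAS-bla HEK293T cells exposed to compound and R5020 agonist for 16 hr at 37C, 5% CO2; run in the same wells as the beta-lactamase reporter read.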

The nature of experiment [4]: qHTS assay to identify small molecule antagonists of the estrogen receptor alpha (ER-alpha) signaling pathway using the BG1 cell line in the presence of 0.1 nM 17-beta-estradiol - cell viability counter screen (AID 1259241). Also: nearly all actives have a fitted effect of over 40% in size. The essentials:
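Live-cell protease activity (CellTiter-Fluor fluorescence, 30 min) was read in the same wells after VM7Luc4E2 cells had been exposed to compounds with 0.1 nM 17beta-estradiol for 22 hr at 37C.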

Experiment [5] can be described thus: qHTS assay to identify small molecule antagonists of the TGF-beta/Smad signaling pathway - cell viability counter screen (AID 1346824). Also: nearly all actives have a fitted effect of over 50% in size. The essentials:
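Cytotoxicity counter-screen run in the same wells as the beta-lactamase Smad reporter read: CellTiter-Glo luminescence after 30 min at room temperature. HEK 293T SBE-bla cells had 5 hr compound exposure at 37 C with TGF-beta1 (0.25 ng/mL stock).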

Inconclusive results are not listed. Calls follow the shape of the dose curve; as a rule, active = well fitted curve in the direction sought with a large enough effect in the repeat runs; inconclusive = weak or mixed curves; inactive = no such curve, though single readings can be large; an effect the other way counts as inactive or inconclusive. Where a structure was tested more than once in an assay, its records may differ in their call. The source holds more than one record for some entries. They are shown here; other results are not. An entry can have further records. Values that stand side by side are repeated measurements in other runs, samples, wells, individuals or studies. Marks in square brackets tell the records apart. A, B and so on number the origins entry by entry.
Potency is read from the fitted curve at half-maximal effect.

On to `O=NN1CCCC1`, for which the Potency entry in experiment [1] is “active: 32.1 µM [sample A] and inactive [sample B]”; in experiment [2], “active: 45.3 µM [sample A] and inactive [sample B]”; in experiment [3], “active: 25.5 µM [sample A] and inactive [sample B]”.
Turning to `CCC[N+](=O)[O-]`, the Potency result was “active: 16.9 µM [sample A] and inactive [sample B]” in experiment [1]; “active: 13.4 µM [sample A] and inactive [sample B]” in experiment [2]; “active: 26.8 µM [sample A] and inactive [sample B]” in experiment [4]; “active: 16.9 µM [sample A] and inactive [sample B]” in experiment [3].
`CCOP(=S)(OCC)SCCSCC`: the Potency result in experiment [5] was “active: 2.01 µM [sample A] and inactive [sample B]”.

The values above are taken from PubChem BioAssay (Tox21).
